# Results reported in the supplement of paper PMC3334620.
# Whole data set: some 33,000 sequences, median “E-score (-0.5 to 0.5)” near -0.032, cut for the highest 2% near 0.36. The list shows a part of the results.
# Biological target: T1, Sko1 (UniProt Q02100)
# T1 sequence: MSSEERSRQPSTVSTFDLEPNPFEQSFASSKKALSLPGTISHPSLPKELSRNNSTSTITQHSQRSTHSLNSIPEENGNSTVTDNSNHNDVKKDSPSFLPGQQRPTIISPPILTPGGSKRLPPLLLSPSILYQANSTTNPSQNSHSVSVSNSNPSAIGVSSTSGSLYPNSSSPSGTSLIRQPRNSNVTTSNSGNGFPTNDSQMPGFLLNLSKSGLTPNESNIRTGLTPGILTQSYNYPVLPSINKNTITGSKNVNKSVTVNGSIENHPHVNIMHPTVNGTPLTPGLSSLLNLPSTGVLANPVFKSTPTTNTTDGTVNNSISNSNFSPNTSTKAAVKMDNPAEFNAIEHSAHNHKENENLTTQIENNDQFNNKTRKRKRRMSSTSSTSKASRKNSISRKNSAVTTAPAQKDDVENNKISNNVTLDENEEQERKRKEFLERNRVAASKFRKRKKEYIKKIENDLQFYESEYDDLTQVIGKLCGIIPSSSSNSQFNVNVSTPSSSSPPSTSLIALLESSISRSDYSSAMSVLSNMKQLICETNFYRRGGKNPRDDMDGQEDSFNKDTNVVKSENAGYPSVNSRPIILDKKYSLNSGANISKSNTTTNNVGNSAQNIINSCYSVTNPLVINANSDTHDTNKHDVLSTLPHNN
# Experiment: PBM E-score (8-mer binding enrichment) (E-score (-0.5 to 0.5)); higher = stronger / more preferred TF binding; most listed sequences are background and not binding sites
# Conditions: protein concentration: 200 nM; construct: GST-full length
# How it was run: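 Each ungapped eight-base word and its reverse complement, pooled, received an E-score from the Universal PBM Analysis Suite. Underlying scans, normalised with masliner, recorded fluorescent anti-GST bound to GST-tagged yeast transcription factors. These were applied at about 100-200 nM to universal all-10-mer Agilent arrays double-stranded by primer extension.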
row,Sequence,PBM E-score
1,GAACAGAC,-0.145
2,GGGATATA,-0.126
3,AGCCGGGC,-0.148
4,GAGCAGGC,-0.247
5,ATCATAAG,0.175
6,TAGGCCAA,-0.131
7,AGCCCCGA,-0.159
8,ATTCGATC,0.0679
9,GTGGGTAA,-0.0262
10,ACTGAAGT,-0.0247
11,GACAGGCA,-0.148
12,AAAGTATT,0.0493
13,CGGTGTAA,-0.193
14,CACGCGCC,0.081
15,GGTATAGA,-0.13
16,TTATGGAA,0.00806
17,GTCAGAGA,0.116
18,ATTGACGA,0.326
19,ATGCAAAC,0.108
20,CCCATAAA,-0.0727
21,CAGCCTGA,-0.0976
22,ACTTTTAC,0.246
23,ACAGGAGT,-0.0316
24,AGCACGGC,-0.175
25,ACTTAGAA,0.0244

row,Sequence,PBM E-score
1,GAGTCCCC,-0.405
2,ATCCAATC,-0.0196
3,TACGCTGA,0.0719
4,AGAAATAA,0.179
5,AATGGTGA,0.0269
6,GCCATAGA,-0.012
7,AGACTTAA,0.0309
8,CGGGCTGA,-0.151
9,CGGCGAAA,-0.153
10,AATCTTAA,0.071
11,CGCCTGTA,-0.286
12,ATCCGGAG,-0.107
13,AAACAATG,0.233
14,AATAAATG,0.186
15,AGAAGTCG,-0.2
16,CATGTCTA,-0.00401
17,GTGGGCTA,-0.00458
18,GTGGATGA,0.0829
19,CCCACCGG,-0.358
20,ACATGCAT,0.0832
21,AAGCCGTC,-0.0334
22,GAACCTGC,-0.159
23,AGATTTAC,0.096
24,ACTGTCAT,0.0228
25,AAGAACAA,0.231

row,Sequence,PBM E-score
1,AAACAGGC,-0.138
2,GGAGAGAA,-0.0614
3,ATGGTACC,-0.214
4,TGCACACA,0.135
5,CTTCGATC,-0.107
6,CACAACGG,-0.136
7,CATGGCCG,-0.258
8,CCTTGAGC,-0.191
9,GATCCGTA,-0.0968
10,ATGGAAGG,-0.191
11,CAAGAATA,0.0646
12,ATCTACGC,0.256
13,TAAAAGAA,0.184
14,TGGTAGAA,-0.129
15,CATACTGC,-0.138
16,CCCTACCG,-0.116
17,CAGGCGGG,-0.289
18,AACAGTCA,-0.0508
19,ACAGTCAT,-0.102
20,ACCGCTCC,-0.213
21,AGTGGCAC,-0.0955
22,CGGTAACC,-0.155
23,GTTCAAAC,0.08
24,ATGAAGAG,-0.125
25,AAGTGAGG,-0.0716

row,Sequence,PBM E-score
1,CTTCGAAA,0.0519
2,ATGACTCA,0.209
3,CCATGCCC,-0.369
4,ATCTTCTC,0.0221
5,CTGCGCAG,-0.29
6,CCTGGATC,-0.415
7,CTCACGCA,0.28
8,CGAACCTA,-0.138
9,ACTTGTTA,0.17
10,ACCCGCAA,-0.171
11,ATTATAAC,0.134
12,CTGGGCCA,-0.335
13,GTGTTAGA,0.143
14,GCGACTGA,0.034
15,AGGAGTCG,-0.212
16,CAACGATA,0.126
17,ATGCCAAC,0.0459
18,AAATCTAG,-0.12
19,AGATCCGC,-0.118
20,CAGCACAG,-0.0438
21,ATTAGTGC,0.0939
22,TCAGGCGA,-0.0685
23,GCTGGCAA,-0.156
24,CACAGCGG,-0.21
25,AATAGGGA,-0.301

row,Sequence,PBM E-score
1,GAACAATA,0.209
2,CAGAAGAG,-0.0605
3,ATTCCGTG,0.0413
4,ACTATCTA,0.0641
5,AAATTTGT,0.148
6,AGGAAGAT,-0.177
7,GAGAAGAC,0.1
8,CCGTCGCG,-0.171
9,GGTGTTTA,-0.00142
10,GAGCAAGA,-0.112
11,CAGCCTCG,-0.191
12,CCGAGAGG,-0.334
13,GTTCGGGA,-0.0477
14,CCTGCCCG,-0.0682
15,AGAATGTG,0.0848
16,GTGAGATA,0.133
17,ATCCGAGC,-0.153
18,CCACGAAG,-0.0986
19,CCGTGCCG,-0.0237
20,CTTTACCA,-0.0191
21,AGACTAAA,0.0518
22,CACGCCAG,-0.122
23,CGTACAAA,0.317
24,AGCGAAAG,-0.0867
25,CATTATCA,0.195

row,Sequence,PBM E-score
1,ACCGCTAA,0.0752
2,AGACAATA,0.0886
3,GCGAGAGC,-0.0235
4,AATTTAAT,0.255
5,CAAATGCA,0.181
6,AATTTGCT,0.105
7,GCAAATGA,0.06
8,CGAAAGAG,0.0363
9,TAGTATGA,0.284
10,CCGAGCCA,-0.215
11,CTCGGTCA,-0.126
12,AAGTGATC,0.112
13,ATATTGGA,0.0611
14,TCAGGAAA,0.00962
15,GATTACGC,0.425
16,TAGTGGGA,-0.244
17,ACCCGGGG,-0.156
18,AGAGCGAG,-0.271
19,CCTACGCC,-0.0487
20,ACACACCA,0.0755
21,GTAGACGA,0.232
22,ATCACGCC,0.0558
23,GCATCATA,0.366
24,ACATAGGT,0.136
25,GACCAACA,0.17

row,Sequence,PBM E-score
1,ATAGAAGA,-0.0166
2,TCATAGAA,0.219
3,GACGATAC,0.253
4,AGAGCCCC,-0.182
5,ACACTTGA,-0.155
6,CCACATAC,0.198
7,GAAAGTAC,0.127
8,GGAGCGAA,-0.011
9,ATGGCATC,0.0693
10,AGATTTCA,0.121
11,TATTAAGA,0.118
12,GTATTTGA,0.109
13,ATCTATTC,0.0232
14,CGTCGCAC,0.00782
15,ACGGGATG,-0.19
16,CCTGTTCC,-0.251
17,GGGTCACA,-0.256
18,GGGCAGTA,-0.114
19,CGGTACGC,0.169
20,CGCCATAA,0.212
21,GAGAACAC,0.0313
22,GAACCACA,-0.0623
23,TCGAAGCA,-0.0359
24,ACCCAGAT,-0.237
25,ATAAGTCC,-0.046

row,Sequence,PBM E-score
1,CGGACGTC,0.292
2,GACGTGAC,0.432
3,TACGGACA,-0.0266
4,AGAATGTC,0.196
5,ATCTTGTA,0.0963
6,ACACAATA,0.173
7,TAAGCCAA,-0.0203
8,TACACGCA,0.261
9,GACAGTGA,0.112
10,GAAAGCGA,-0.059
11,AACTGCTA,0.059
12,ACATCCAT,0.0911
13,GATCTAGA,-0.0151
14,AACTAAGA,0.178
15,AGCCTCTG,-0.318
16,CCCAAAGA,-0.106
17,CAGGTGTC,-0.253
18,CGCCAAAC,-0.158
19,GAACCTAA,-0.0781
20,GGAGGGAA,-0.391
21,CAGACAGG,-0.208
22,CCTATACC,-0.227
23,AGATTGGA,-0.114
24,GGCGATCA,-0.211
25,GAAGATGC,-0.236

row,Sequence,PBM E-score
1,AATACAAA,0.224
2,ACGCGGTG,0.00049
3,AAGGGCTG,-0.276
4,CCGATATC,-0.00623
5,AATTGCCA,0.0631
6,CCATAGCG,0.0329
7,ATTGTCCG,-0.0584
8,AACACCTC,0.0383
9,CGCATCGA,-0.00344
10,TATCACCA,0.0309
11,AGCCAGCT,-0.097
12,GGTACAAA,0.0825
13,CTCGATGA,0.0638
14,TAAAGCAA,0.024
15,CATTGCAA,-0.131
16,CTCGCCCA,-0.111
17,AGGACGAA,-0.133
18,AATGCCGT,0.167
19,CGCAGTAG,0.012
